Measurements reported in the supplement of paper PMC11417369.
± gives the standard deviation of the averaged measurements. The list shows a part of the results.

tested on: PfAP2-I AP2 domain 3 (GST-tagged); assay: gcPBM binding intensity (ln(normalized median fluorescence intensity)); higher = stronger DNA binding
Procedure, shortened: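 Binding intensity is the highest Masliner-normalised natural-log median intensity over replicate spots in either probe orientation. To obtain it, GST-tagged P. falciparum DNA-binding domains made in E. coli were incubated for 1 h on an Agilent 4 × 180k array of primer-extended double-stranded 36-bp intergenic genomic probes plus negative controls. Detection used Alexa488 anti-GST antibody with scanning at 488 nm.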

“TTTTTAAAATTTTTAAAAATATTATGTTAAATATAT [CACACA_negctrl_site415]” and “ACATATGAAAAATATGCATGCAAATATTATTTAACA [TGCATGCA_site802]” are within error of each other in “gcPBM binding intensity (ln)” value: 7.61 ± 0.39 for the first, 7.74 ± 0.84 for the second.

“AAAAAAAAAAAAATCTCACACATAAAGAGATTATGA [CACACA_site4408]” and “TTGAAAGAAAATAAAATAAAATAAAATAAAATAAAA [CACACA_negctrl_site859]” are within error of each other in “gcPBM binding intensity (ln)” value: 7.55 ± 0.45 for the first, 7.69 ± 0.89 for the second.

“ATATATATGTATTTATGTACATATTATTTTTCTTAA [XGTACX_site8169]” and “AATAAATAAAAATATATATATATAATATACATGTGT [TGCATGCA_negctrl_site369]” are within error of each other in “gcPBM binding intensity (ln)” value: 7.82 ± 0.64 for the first, 7.62 ± 0.5 for the second.

“GGATGTATTTATATGTGTATGTGTTTGGAAATATGT [XGTACX_negctrl_site99]” and “TTTTATTTCAATCCACAAGGGATAAAATAAAGTTTT [CACACA_negctrl_site699]” are within error of each other in “gcPBM binding intensity (ln)” value: 8.04 ± 0.47 for the first, 7.36 ± 0.53 for the second.

“ATATGGAATAATACGCGTACACACATATATATATTA [XGTACX_site307]” and “TCTTGATTATATAGTACTACACATTATAAAAAAATT [XGTACX_site2465]” are within error of each other in “gcPBM binding intensity (ln)” value: 8.11 ± 0.28 for the first, 8.06 ± 0.34 for the second.

Going from “TTTATATCATTACAAGTGCATATCATCATAAATTCT [GTGCAC_site9878]” to TATATATAAATATATGTGCACTTTTTATATTTATAT, the “gcPBM binding intensity (ln)” value rises from 8.81 ± 0.3 to 11 ± 0.13.

Going from “AAAAAATAGAATATAAAAATAAAGGAATTAAATTAA [XGTACX_negctrl_site420]” to “AATTTTTTTTTAATCATGCACACTGTTAAAAGAATA [CACACA_site1240]”, the “gcPBM binding intensity (ln)” value rises from 7.33 ± 0.75 to 8.49 ± 0.35.

“TTCATATATTTAGGACGTACTTTTATATTACTATAT [XGTACX_site6456]” and “TTTTAAAAATTAAGTGCATGTCCTTATAAAAAAAAA [TGCATGCA_site845]” are within error of each other in “gcPBM binding intensity (ln)” value: 7.64 ± 0.46 for the first, 8.49 ± 0.51 for the second.

“ATATATTGGAGCACAACACACACAAGTATATATATG [CACACA_site8435]” and “AAAAAAAAAAAAAACACACAGAACAATATATAAATA [CACACA_site982]” are within error of each other in “gcPBM binding intensity (ln)” value: 8.41 ± 0.34 for the first, 7.94 ± 0.62 for the second.

First: AAAAAAAAATACAAAATAGCAATAAATACACAAACG [GTGCAC_negctrl_site707]
Second: AAAAAAAAAAAAAAAACATGCACAAATTATAAGTGA [TGCATGCA_site378]
The “gcPBM binding intensity (ln)” value of the first is lower: 7.98 ± 0.64 for the first, 9.2 ± 0.46 for the second.

“ACTACATAATACTATTCACACATTTTTTTTTTTTTT [CACACA_site5794]” and “AATTATATAACAAATTGTACGAATGAAAATATTATT [XGTACX_site4237]” are within error of each other in “gcPBM binding intensity (ln)” value: 7.83 ± 0.58 for the first, 7.78 ± 0.57 for the second.

Going from “TAAAAATAGGAATACGCACACGATGATTAATTTATA [CACACA_site1835]” to “ATTTTTTTTTTTTTTTTGGGGGGGTATACTTTTAAA [CACACA_negctrl_site1020]”, the “gcPBM binding intensity (ln)” value rises from 7.84 ± 0.5 to 11.6 ± 0.4.

“TTCCTTTTTTTTTATTGTACAAAAATATCAAAAAGG [XGTACX_site8505]” and “TTTTTAATTTTATATACACACATAAAATATATGAAG [CACACA_site3145]” are the same in “gcPBM binding intensity (ln)” value: 7.78 ± 0.2 for the first, 7.78 ± 0.49 for the second.

“TATAATGAGGATGATAGTACGTATTAGTATAAAAAA [XGTACX_site6623]” and “TTTATATATATTTATACACACAAACATAATACTACT [CACACA_site5161]” are within error of each other in “gcPBM binding intensity (ln)” value: 8.01 ± 0.64 for the first, 7.77 ± 0.51 for the second.

“ATAATACCCAAGCACACACACACACCGATATATATA [CACACA_site8344]” and “AATTTATAAGAATAAAGTACTAAAGATACAACTTTA [XGTACX_site7153]” are within error of each other in “gcPBM binding intensity (ln)” value: 8.43 ± 0.54 for the first, 7.53 ± 0.4 for the second.

“TGTTATTATAACATTTTTTTCAAAATAGCTTTAGAA [CACACA_negctrl_site266]” and “ATTAAAGGAAGCAAAACATGCAACAGCAATATTGCA [TGCATGCA_site452]” are within error of each other in “gcPBM binding intensity (ln)” value: 7.46 ± 0.56 for the first, 7.79 ± 0.73 for the second.

“ATATTTTTTGCTATTACACACAAGGGATTATTATTT [CACACA_site7776]” and “AAGAAAAAAAATATATATGTATATATTATTTTAACA [TGCATGCA_negctrl_site534]” are within error of each other in “gcPBM binding intensity (ln)” value: 8.15 ± 0.59 for the first, 7.34 ± 0.3 for the second.

“ATGTTAATAACTTGTGGTACTGTTATAATTTAGTAA [XGTACX_site2114]” and “TAATAATAGTCTAATACATGCATCGATAACGGAACT [TGCATGCA_site98]” are within error of each other in “gcPBM binding intensity (ln)” value: 7.71 ± 0.42 for the first, 7.67 ± 0.67 for the second.

First: TATATACACATATATACACACACATATATATATATA [CACACA_site9127]
Second: ATATATCTACTGTGTTGTACTGTTAATATTTGAATA [XGTACX_site1931]
The “gcPBM binding intensity (ln)” value of the first is higher: 9.24 ± 0.55 for the first, 7.81 ± 0.55 for the second.

“ATATAAGTGTATCTAACACACAAATATGTAAAAATG [CACACA_site7006]” and “CAGGCGTGAAATATACGTACACACATTATTTATATT [XGTACX_site5337]” are within error of each other in “gcPBM binding intensity (ln)” value: 7.61 ± 0.59 for the first, 8.01 ± 0.26 for the second.

“ATATAAATTATTTACACACAAACATTTATACTTTTA [CACACA_site3448]” and “TTTTGTTACGGCAAGGAAGTTAAGCATAAATGAATG [GTGCAC_negctrl_site173]” are within error of each other in “gcPBM binding intensity (ln)” value: 7.96 ± 0.41 for the first, 7.99 ± 0.62 for the second.

“TATTAAAAAAATGTATGTACATATATAAATTTTTTT [XGTACX_site1094]” and “AATGATCATAAATACACACACACAAAAAAAAAAAAA [CACACA_site6072]” are within error of each other in “gcPBM binding intensity (ln)” value: 7.66 ± 0.33 for the first, 7.95 ± 0.62 for the second.
